# About 14,000 (4.5%) of roughly 310,000 compounds showed an effect of 50% or more. The effect is printed as a negative number. The list shows a part of the results.
# Target: human ether-à-go-go-related gene (hERG) potassium channel (human, UniProt Q12809)
# Assay: primary screen, population patch clamp on CHO cells stably expressing hERG
# 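Note: peak tail current of the secondary pulse compared with the same well before compound.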
# human ether-à-go-go-related gene (hERG) potassium channel, sequence (Q12809 whole entry, looked up): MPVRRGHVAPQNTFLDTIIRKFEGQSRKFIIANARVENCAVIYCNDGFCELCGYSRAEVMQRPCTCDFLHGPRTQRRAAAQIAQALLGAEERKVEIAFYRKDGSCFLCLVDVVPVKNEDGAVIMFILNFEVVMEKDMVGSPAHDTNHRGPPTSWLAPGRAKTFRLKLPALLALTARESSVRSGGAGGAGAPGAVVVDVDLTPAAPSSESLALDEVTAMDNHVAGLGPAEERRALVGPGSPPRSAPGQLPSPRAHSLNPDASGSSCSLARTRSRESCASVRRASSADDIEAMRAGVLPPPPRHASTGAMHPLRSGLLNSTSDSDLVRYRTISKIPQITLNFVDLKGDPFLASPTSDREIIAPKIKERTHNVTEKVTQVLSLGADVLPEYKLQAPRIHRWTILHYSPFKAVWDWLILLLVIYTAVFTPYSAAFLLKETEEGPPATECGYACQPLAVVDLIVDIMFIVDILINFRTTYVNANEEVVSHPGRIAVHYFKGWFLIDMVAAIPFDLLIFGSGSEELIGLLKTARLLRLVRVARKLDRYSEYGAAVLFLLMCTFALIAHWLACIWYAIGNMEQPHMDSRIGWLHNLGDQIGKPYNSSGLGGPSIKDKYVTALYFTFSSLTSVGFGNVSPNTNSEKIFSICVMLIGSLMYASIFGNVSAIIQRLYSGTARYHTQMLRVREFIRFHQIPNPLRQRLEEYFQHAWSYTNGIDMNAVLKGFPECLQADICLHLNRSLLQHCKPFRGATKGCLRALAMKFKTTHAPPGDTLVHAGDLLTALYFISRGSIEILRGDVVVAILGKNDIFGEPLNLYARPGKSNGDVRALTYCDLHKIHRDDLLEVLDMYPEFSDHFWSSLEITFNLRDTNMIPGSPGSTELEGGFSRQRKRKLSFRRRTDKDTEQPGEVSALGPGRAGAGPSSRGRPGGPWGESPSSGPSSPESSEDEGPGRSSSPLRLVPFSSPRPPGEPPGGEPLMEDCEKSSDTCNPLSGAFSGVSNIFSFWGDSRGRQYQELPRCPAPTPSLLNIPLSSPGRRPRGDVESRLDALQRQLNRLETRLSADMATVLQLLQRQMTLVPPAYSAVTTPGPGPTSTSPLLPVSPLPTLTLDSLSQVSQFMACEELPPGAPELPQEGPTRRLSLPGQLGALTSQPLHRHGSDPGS
row,SMILES,"hERG current change (%, negative = inhibition) at 10uM [%]"
1,Cc1ccc(C)c(NC(=O)CCC(=O)NNS(=O)(=O)c2ccc(Cl)cc2)c1,0.59
2,CCOC(=O)c1[nH]c(C)c(/C(O)=C2\C(=O)C(=O)N(CCCN(C)C)C2c2cccnc2)c1C (stereo not drawn),4.27
3,COc1cccc(OCc2nnc(SCC(=O)OC3CCCCC3)n2C)c1,-13.2
4,CCN1CCN(C(c2ccccc2)c2sc3nc(C)nn3c2O)CC1 (stereo not drawn),-9.32
5,Cc1cc(C)n2nc(-c3cnn(C)c3C(F)(F)F)cc2n1,2.23
6,Cn1c(=O)[nH]c(=O)c2c1nc(N1CCCCCC1)n2CCCSc1nnnn1-c1ccccc1,-30.4
7,O=C(c1ccc(F)c(F)c1)N1CCCc2ccccc21,0.0993
8,O=C(Cn1cnc2cc([N+](=O)[O-])ccc2c1=O)Nc1ccccc1-c1ccccc1,-2.95
9,COc1ccc(CCNC(=O)Cn2c(=O)c3cccn3c3cccnc32)c(OC)c1OC,15
10,Cc1ccc(S(=O)(=O)N2CCCC(C(=O)NC3CCCC3)C2)cc1 (stereo not drawn),10.3
11,CCOC(=O)c1[nH]c(C)c(/C(O)=C2\C(=O)C(=O)N(CCCN(CC)CC)C2c2cccnc2)c1C (stereo not drawn),-1.32
12,COc1ccccc1CNC(=O)C1CCCCN1S(=O)(=O)c1ccccc1 (stereo not drawn),-46.4
13,O=C(/C=C/c1ccccc1Cl)N1CCOCC1,13.5
14,CCOC(=O)c1sc(NC(=O)CCc2ccccc2)nc1C,27
15,CCN(CC)CCCNc1ccc(-c2nnc(-c3ccc(OCC(C)C)cc3)o2)cn1,-46.3
16,O=C(C1CC1)N(CCN(Cc1ccccc1)C(=O)C1CC1)Cc1ccccc1,-28.9
17,CC(=O)c1ccc(OCC(C)C)c(Cc2c(O)nc(N)[nH]c2=O)c1,-2.07
18,O=C(O)CNc1ccccc1C(=O)O,-4.04
19,CC(C)c1ccc(S(=O)(=O)N2CCC(C(=O)NCC3(N(C)C)CCCCC3)CC2)cc1,-54.4
20,CCN(CC)C(=O)Cn1cc(SCC(=O)NC)c2ccccc21,-9.06
21,O=C(c1cc2n(n1)C(C(F)(F)F)CC(c1ccc(F)cc1)N2)N1CCCC1 (stereo not drawn),10.4
22,COC(=O)CN(C#N)c1nc(C)cc(C)n1,-1.38
23,Cc1cccc(/C=C2\CCC(C3CCCC3)C2=O)c1 (stereo not drawn),-7.29

row,SMILES,"hERG current change (%, negative = inhibition) at 10uM [%]"
1,Cc1cccc(CN2C3=NCCCN3c3ccccc32)c1.Cl,-57.4
2,CCc1cc(=O)oc2cc(C)cc(OCC(=O)C(C)(C)C)c12,2.5
3,COC(=O)/C=C1\OC(c2ccccc2)=CC1=O,-5.83
4,CN1CCC2(CC1)C(C#N)=C(N)NC(S)=C2C#N,12.9
5,Cc1ccccc1OCCOC(=O)c1cc(S(=O)(=O)N2CCCCC2)ccc1N1CCOCC1,-8.34
6,Cc1ccccc1C(=O)N1CCN(c2ccc(NC(=O)c3cccnc3Cl)cc2)CC1,13
7,CCOc1ccc(NC(=O)c2ccc(Cn3nc(C)cc3C)o2)cc1,-34.5
8,COc1ccc(C(=O)C[N+]2(C)CCOCC2)cc1.[I-],8.6
9,CCOCCCNC(=S)N1CCN(c2nc(-c3ccc(F)cc3)cs2)CC1,-16.3
10,O=S(=O)(c1cccc2cccnc12)N1CCc2ccccc21,2.89
11,CCOC(=O)NC1(C(F)(F)F)C(=O)N(Cc2ccccn2)C2=C1C(=O)CC(C)(C)C2 (stereo not drawn),20.3
12,COc1cc(OC)cc(-c2nc3cc(C)ccc3o2)c1,-18
13,CCCCn1c(N)c(N(CCOC)C(=O)C2CC(=O)N(c3cccc(SC)c3)C2)c(=O)[nH]c1=O (stereo not drawn),14.4
14,COc1ccc(C(=O)CN2C(=O)NC3(CCc4ccccc43)C2=O)cc1 (stereo not drawn),-0.107
15,Cc1cc(S(=O)(=O)NCc2ccco2)c(C)s1,12
16,CCOC(=O)C1CCCN(c2c(C(=O)c3ccccc3)cnc3ccc(OC)cc23)C1 (stereo not drawn),-37.5
17,O=C(c1ccc2nccnc2c1)N1CCN(Cc2ccc3c(c2)OCO3)CC1,-7.14
18,O=C(NCC1CCN(Cc2ccccc2Cl)CC1)Nc1ccccc1F,-44.7
19,Cc1cc(C(=O)N2CCCC(N3CCN(c4ccccc4C)CC3)C2)n(C)n1 (stereo not drawn),-88.8
20,CCN(CC)C(=O)CSc1nc2ccc(NC(=O)CSc3nnc(N)s3)cc2s1,12.8
21,O=C(N1CCCCC1)N1CCN(C(=O)N2CCCCC2)CC1,24.1
22,Cc1ccc([N+](=O)[O-])c(OCc2ncc(Cl)n2C)c1,10.3

# — publication PMC4336329 (PLoS ONE, 2015)
